Out of some 44,000 compounds screened, about 340 (0.77%) were called active. Another 5% or so got no clear call; they are omitted. Calls follow the shape of the dose curve; as a rule, active = well fitted inhibition curve with a large enough effect; inconclusive = small, poorly fitted or top-dose-only effect; inactive = flat fitted curve, though single readings scatter. The list shows a part of the results.
Test: Acumen qHTS Assay for Inhibitors of the mTORC1 Signaling Pathway in MEF (Tsc2-/-, p53-/-) Cells: Sytravon;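 also: plate controls were DMSO for no effect and rapamycin for full effect; nearly all actives have a fitted effect of over 50% in size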
Details: phospho-rpS6 immunofluorescence/PI, 24 h; series mostly up to 38.3 µM; activity change, negative = inhibition: at the top concentration
Method in brief: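 Immunofluorescence of rpS6 phosphorylation in Tsc2-/-, p53-/- MEFs after 24 h compound exposure, normalized to propidium iodide signal. Activity is expressed as % positive cells, thresholded with 7.5 nM rapamycin.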

| SMILES | activity change, negative = inhibition |
| --- | --- |
| CCOC(=O)c1cccc(NC(=O)c2cc3c(-c4cccc(OC)c4)nn(C)c3s2)c1 | inactive: -3.81% |
| Cc1ccc(S(=O)(=O)c2nc(S(C)(=O)=O)sc2N(C)Cc2ccccc2)cc1 | inactive: 1.03% |
| Cc1cccc(NC(=O)C2CCC(CNS(=O)(=O)c3csc(C(N)=O)c3)CC2)c1C (stereo unspecified) | inactive: 3.97% |
| Cc1nn2c(=O)cc(COc3ccc(/C=C(\C#N)C(=O)Nc4ccc(F)cc4)cc3)nc2s1 | inactive: -0.379% |
| COc1cccc(Nc2cc(C)nc3nc(-c4ccc(Cl)cc4)nn23)c1 | inactive: -2.28% |
| COc1ccc(NCc2cc3cc4c(cc3n(CC(=O)Nc3cc(C)cc(C)c3)c2=O)OCO4)cc1 | inactive: -4.77% |
| Cc1nn(C)c2c1c(-c1ccccc1)cc(=O)n2CC(=O)Nc1ccccc1C(F)(F)F | inactive: -14.9% |
| CCOC(=O)COc1ccccc1C1C(C(=O)OC)=C(C)NC2=C1C(=O)c1ccccc12 (stereo unspecified) | inactive: 5.93% |
| O=C(COc1ccccc1Cl)Nc1nnc(S(=O)(=O)N2CCCCCC2)s1 | inactive: 0% |
| O=C(NCCCc1nc2ccccc2n1Cc1c(F)cccc1Cl)C1CCCCC1 | inactive: 0.713% |
| COc1cc(NC(=O)Nc2cccc(-c3noc(C)n3)c2)cc(OC)c1OC | inactive: -0.376% |
| Cc1cn2c(=O)cc(COc3ccc(Cl)cc3)nc2s1 | inactive: 3.37% |
| Cc1ccc(Cl)cc1NC(=O)Cc1ccc(-n2c(C)nc3cccnc32)cc1 | inactive: 0% |
| CCOc1ccc(-n2c(=O)c3c(C)c(C)sc3n(CC(=O)N(CC)Cc3ccccc3)c2=O)cc1 | inactive: 1.96% |
| CCOc1ccc(CNc2nc3nc(C)c(Cc4ccccc4)c(=O)n3[nH]2)cc1 | inactive: 7.34% |
| CCc1ccc(CNC(=O)C2Cc3cc(S(=O)(=O)N4CCCCCC4)ccc3N2C(C)=O)cc1 (stereo unspecified) | inactive: 0% |
| COc1ccc(N(Cc2cccs2)C(=O)c2ccc(OCC(C)C)cc2)cc1 | inactive: -15.6% |
| CCCc1nn2c(=O)cc(COC(=O)c3ccccc3NC(=O)c3cccs3)nc2s1 | inactive: 26.1% |
| COc1cc(C2c3c(oc4ccccc4c3=O)C(=O)N2c2ccccn2)cc(OC)c1OC (stereo unspecified) | inactive: -4.21% |
| Cc1cccc(NC(=O)C2CCC(CNS(=O)(=O)c3ccc(Br)s3)CC2)c1 (stereo unspecified) | inactive: -14.7% |
| Cc1ccc(C)c(C(=O)c2c(N)c(-c3nc(-c4ccc5c(c4)OCO5)cs3)c3ccccn23)c1 | inactive: 0.0608% |
| Cc1ccc(OCC(=O)Nc2ccc(Cl)c(-c3nc4ncccc4o3)c2)c(C)c1 | inactive: -4.95% |
| COc1cccc(C2CC(=O)N(c3ccc(F)cc3)C3=C2C(=O)OC3)c1OC (stereo unspecified) | inactive: -19.1% |
| Cn1ccc2c(OCC(=O)NCc3ccccc3)cccc2c1=O | inactive: 0.742% |

| SMILES | activity change, negative = inhibition |
| --- | --- |
| COCCNC(=O)c1c[nH]c2ccc(S(=O)(=O)Nc3ccc(F)cc3F)cc2c1=O | inactive: -9.71% |
| CC(C)c1nn2c(=O)cc(COC(=O)c3cccc(NC(=O)c4cccs4)c3)nc2s1 | inactive: 3.9% |
| CCc1ccc(C2=NN(CCC(=O)NCCc3ccc(OC)c(OC)c3)C(=O)CC2)cc1 | inactive: 0.32% |
| CCCOc1ccc(-c2nonc2NC(=O)c2cc(OC)c(OC)c(OC)c2)cc1OCCC | inactive: 2.45% |
| CCc1ccccc1NC(=O)CCOc1ccccc1 | inactive: 7.43% |
| Cc1ccc(N2CC(NC(=O)c3cc4ccccc4o3)CC2=O)cc1C (stereo unspecified) | inactive: -5.26% |
| COc1ccc(CSc2nc3ccncc3n2CC(=O)Nc2ccc(C)c(F)c2)cc1 | inactive: -7.7% |
| CCc1ccccc1NC(=O)Cn1c(=O)n(-c2ccc(CC(=O)NCC3CCCO3)cc2)c(=O)c2ccccc21 (stereo unspecified) | inactive: -6.46% |
| Cc1ccccc1C(=O)Nc1ccc2nc(SCC(=O)N3CCc4ccccc43)sc2c1 | inactive: -12.2% |
| COc1ccc(CNC(=O)c2ccc3c(c2)N(Cc2ccc(C)cc2)CCS3)cc1 | inactive: 3.37% |
| CCOC(=O)c1cnc2nc(NCc3cccc(Br)c3)[nH]n2c1=O | inactive: 4.3% |
| COc1ccccc1CNC(=O)CC(c1ccc(C)cc1)N1Cc2ccccc2C1=O (stereo unspecified) | inactive: -6.71% |
| Cc1cc(C)cc(-n2ccn(Cc3ccccc3C)c(=O)c2=O)c1 | inactive: 9.53% |
| COc1ccc(CCNC(=O)CCS(=O)(=O)c2cc(Br)cc3c2N(C(C)=O)CC3)cc1OC | inactive: -16% |
| Cc1cc(C)cc(NC(=O)C2CCCN2S(=O)(=O)c2ccc3c(c2)CCCC(=O)N3)c1 (stereo unspecified) | inactive: 5.98% |
| Cc1ccc(CNC(=O)C2COc3ccccc3C2)cc1 (stereo unspecified) | inactive: 0.579% |
| Clc1ccc(-c2nc3c4cnn(-c5ccccc5Br)c4ncn3n2)c(Cl)c1 | inactive: -7.98% |
| COC(=O)CSc1nc2sc3c(c2c(=O)n1-c1ccccc1C)CC(C)(C)OC3 | inactive: -12.7% |
| Cc1ccccc1NC(=O)c1sc2nc3n(c(=O)c2c1C)CCC3 | inactive: -0.757% |
| Cc1ccc(OCC(=O)OC2=C(C(=O)c3ccccc3)N(C)S(=O)(=O)c3ccccc32)cc1 | inactive: -0.193% |
| Cc1oc(-c2ccc(C(=O)NCCC(C)C)cc2)nc1CN1CCc2ccccc21 | inactive: -2.71% |
| O=S(=O)(Nc1cccc(C(F)(F)F)c1)c1ccc(-c2cnc(C3CC3)o2)cc1 | inactive: -15.4% |
| Cc1ccc(-n2nnc(-c3nc(-c4cccs4)no3)c2N)c(C)c1 | inactive: -3.42% |
| CC(C)c1ccc(OCC(=O)Nc2c(C(=O)c3ccc(F)cc3)oc3ccccc23)cc1 | inactive: 1.24% |

| SMILES | activity change, negative = inhibition |
| --- | --- |
| Cc1ccc(Nc2c(-c3ccsc3)nc3c(C)cccn23)cc1 | inactive: -10.4% |
| COc1ccc(S(=O)(=O)NCc2cccn2Cc2cccc(C)c2)cc1 | inactive: -0.522% |
| CCCCCSc1nc2sc3c(c2c(=O)n1-c1ccc(OC)cc1)CCN(C(C)=O)C3 | inactive: -16.9% |
| COc1ccccc1NC(=O)CC(c1cc(OC)c(OC)c(OC)c1)N1Cc2ccccc2C1=O (stereo unspecified) | inactive: 0.0282% |
| Cc1c(C)n(C)c2ccc(C(=O)NCc3cccc(F)c3)cc12 | inactive: -10.8% |
| COc1cc2c(cc1NC(=O)COc1ccc(Cl)cc1Br)oc1ccccc12 | inactive: -7.88% |
| CCOC(=O)CSc1nnc2n(-c3ccccc3)c(=O)c3c4c(sc3n12)CC(C(C)(C)C)CC4 (stereo unspecified) | inactive: -0.795% |
| CCOc1cc2sc(N3CCC(C(=O)Nc4cc(C)cc(C)c4)CC3)nc2cc1Br | inactive: -1.61% |
| Cc1cc(=O)c2cc(C(=O)Nc3ccccc3C)ccc2[nH]1 | inactive: 0.666% |
| COC(=O)c1cc2sc(Cl)cc2n1Cc1cc(C)ccc1C | inactive: -3.01% |
| CCc1ccccc1NC(=O)Cn1c2ncccc2c(=O)n1-c1ccccc1 | inactive: 3.82% |
| COc1ccc(Cn2ccc3nc(C)c(C(=O)NCc4cccc(OC)c4)cc3c2=O)cc1 | inactive: -0.0668% |
| Cc1ccc(-n2nc3c(=O)n(CC(=O)NCC(C)c4ccccc4)nc(C)c3c2C)cc1 (stereo unspecified) | inactive: -8.53% |
| COC(=O)c1ccc(CSc2nnc3ccc4ccccc4n23)cc1 | inactive: -4.14% |
| COc1cc(F)c(S(=O)(=O)Nc2c(C)n(C)n(-c3ccccc3)c2=O)cc1OC | inactive: -10.2% |
| CCn1cc2c(n1)-c1c(oc(C(=O)Nc3cccc(C(F)(F)F)c3)c1C)CC2 | inactive: -3.99% |
| COc1ccccc1Cn1cc(C(=O)c2ccc(C)cc2)c(=O)c2cc3c(cc21)OCCO3 | inactive: -5.68% |
| O=C(CN1CCSc2ccccc21)N1CCN(c2ccc(F)cc2)CC1 | inactive: -3.06% |
| CCCN(Cc1cccs1)C(=O)Nc1cc(OC)ccc1OC | inactive: -2.28% |
| Cc1ccc(N(C)C(=O)c2cc(S(=O)(=O)N3CCOCC3)cn2C)cc1 | inactive: 2.84% |
| COc1ccc(CCNC(=O)CCCCn2c(=O)c3ccccc3n(Cc3ccccc3Cl)c2=O)cc1OC | inactive: -6.52% |
| COc1ccccc1-c1noc(CCCC(=O)Nc2cc(C)ccc2C)n1 | inactive: 3.54% |
| COc1ccc(C(=O)Nc2ccc(C(=O)OCc3cc(=O)n4nc(C5CC5)sc4n3)cc2)cc1 | inactive: 0% |
| Cc1ccc(-n2nc3c(N4CCC(C(=O)NCc5ccccc5Cl)CC4)nnc(C)c3c2C)cc1 | inactive: 0.371% |

| SMILES | activity change, negative = inhibition |
| --- | --- |
| CC(=O)c1ccc(NC(=O)CCOc2ccccc2)cc1 | inactive: -5.46% |
| COc1ccc(OC)c(S(=O)(=O)NCCc2csc(-c3cccc(F)c3)n2)c1 | inactive: -4.24% |
| CCOC(=O)c1c(C)[nH]c(C)c1S(=O)(=O)NCC(=O)N1CCN(c2ccccc2OC)CC1 | inactive: -8.24% |
| CCN(CC)C(=O)Nc1ccc2c(c1)N(Cc1ccccc1)C(=O)c1ccccc1S2 | inactive: 0.257% |
| COc1cc(C(=O)NC(c2ccc(Cl)cc2)c2cc(Cl)c3cccnc3c2O)cc(OC)c1OC (stereo unspecified) | inactive: -0.196% |
| CCc1cccc(C)c1NC(=O)CN1CCCN(Cc2ccccc2Cl)S1(=O)=O | inactive: -3.62% |
| CCOc1ccccc1NC(=O)C(CC)n1c(C(=O)OC)cc2occc21 (stereo unspecified) | inactive: -2.88% |
| COc1ccc(N(C(=O)/C=C\C(=O)Nc2ccc(C)cc2)C(C(=O)NCc2ccco2)c2ccc(C)cc2)cc1 (stereo unspecified) | inactive: 6.66% |
| COc1ccc(Nc2oc(/C=C/c3cccc(OC)c3)nc2C#N)cc1 | inactive: -25.2% |
| CCCn1c(=NC(=O)c2cc3ccccc3o2)c(C(=O)OCC)cc2c(=O)n3ccccc3nc21 | inactive: -2.96% |
| O=C(Cn1ncc2ccsc2c1=O)N1CCN(c2ccccc2F)CC1 | inactive: 1.77% |
| CCCCN(CC)CCNC(=O)C1CCCN(S(=O)(=O)c2cccc3nsnc23)C1 (stereo unspecified) | inactive: -2.1% |
| O=S(=O)(c1ccc(-n2cnnn2)cc1)N1CCN(c2cccc(Cl)c2)CC1 | inactive: -5.85% |
| Cc1c(C(=O)N2CCCCCC2)c(S(=O)(=O)N(Cc2ccccc2)C(C)(C)C)c(C)n1C | inactive: -1.32% |
| Cc1ccc(-n2c(=O)c3cccnc3n2CC(=O)Nc2cc(Cl)ccc2C)cc1 | inactive: 4.94% |
| O=c1cc(-c2ccccc2)n2c(SCc3c(F)cccc3Cl)nnc2[nH]1 | inactive: -6.34% |
| Cc1ccc(NC(=O)C(=O)NCc2ccco2)cc1 | inactive: 9.61% |
| Cc1ccc(NC(=O)CN(C)S(=O)(=O)c2cnc[nH]2)cc1 | inactive: -2.03% |
| COc1ccccc1OCC(=O)NCC(c1ccc(Cl)cc1)N1CCOCC1 (stereo unspecified) | inactive: 1.74% |
| Cc1ccc(C)c(CN2C(=O)c3ccccc3S(=O)c3ccc(C(=O)N4CCN(c5cccc(Cl)c5)CC4)cc32)c1 (stereo unspecified) | inactive: -1.37% |
| Cc1ccc(NC(=O)Cn2c(=O)n(CCCCC(=O)NCc3ccccc3Cl)c(=O)c3ccccc32)cc1 | inactive: 2.45% |
| COc1ccc(C(CC(=O)NCc2ccccc2Cl)N2Cc3ccccc3C2=O)cc1OC (stereo unspecified) | inactive: -5.36% |
| CC(C)CC(=O)NC1(C(F)(F)F)C(=O)Nc2c1c(=O)[nH]c(=O)n2-c1ccccc1 (stereo unspecified) | inactive: -13% |
| CCOc1ccccc1NC(=O)CN1C(=O)CC(c2ccc(OC)c(OC)c2)Sc2ccccc21 (stereo unspecified) | inactive: 0.123% |

From PubChem BioAssay AID493208 (National Center for Advancing Translational Sciences (NCATS), 2011)
